The values that follow come from PubChem BioAssay AID322 (DTP/NCI, 2004).

The experiment deals with CD2F1 mice, P388/ADR leukemia ip, median survival T/C. The experiment is described as follows: NCI In Vivo Anticancer Drug Screen. Data for tumor model P388 Leukemia resistant to Adriamycin; NSC 123127, Developed at Scr 08 (intraperitoneal) in CD2F1 (CDF1) mice. Conditions: endpoint: median survival time, higher = longer survival. As for the experimental part: The antitumor activity of compounds was measured in mice bearing transplantable tumors. Survival or tumor size were measured and the results are expressed as the measurement made in the treated group (T) divided by the measurement made in the vehicle treated control group (C). The tumor model used in this assay is P388 Leukemia resistant to Adriamycin; NSC 123127, Developed at Scr 08 (intraperitoneal) in CD2F1 (CDF1) mice

Structures are written as SMILES. Toxic doses and inconclusive results are not listed. The source holds more than one record for some entries. Only these are listed. There may be further records. The records of an entry are repeats (runs, samples, wells, individuals or studies).

Turning to `COc1cccc2c1C(=O)c1c(O)c3c(c(O)c1C2=O)C[C@@](O)(C(=O)CO)C[C@@H]3OC1CC(N2CCOCC2C#N)C(O)C(C)O1` (some centres undefined), under “dose: 18.75 micrograms/kg/injection, schedule: Q04DX003 (ip), vehicle: saline with Tween-80”, the T/C is 109 % of control and 175 % of control.
Take `COc1cc(NCc2ccc3nc(N)nc(N)c3c2C)cc(OC)c1OC`: the T/C (dose: 90.0 mg/kg/injection, schedule: Q01DX009 (ip), vehicle: distilled water + Tween-80) is 115 % of control and 160 % of control.
On to `CCOC1NC(=O)Oc2ccccc21` (centres undefined), for which, where the note is “dose: 200.0 mg/kg/injection, schedule: Q01DX005 (ip), vehicle: Klucel (hydroxypropylcellulose) (HPC)”, the T/C was 123 % of control and 158 % of control.
Turning to `c1ccc(OCC2CO2)c(OCC2CO2)c1` (centres undefined), the T/C (dose: 30.0 mg/kg/injection, schedule: Q01DX005 (ip), vehicle: saline with Tween-80) is 123 % of control and 161 % of control.
